Results taken from the supplement of paper PMC12632987.
The full ranking holds about 1,800 sequences; the median of “median log2 fold change of GCK-ALFA target abundance (FLAG IP / Myc IP barcode read proportion)” is about 0.14, and the lowest 2% start at about -0.84. The list shows a part of the results.

B1: traf2_out_3_89_2279 (protein)
chain: MEEEEKKIEEARKNIETHIKGLEKSTRRVAEKMLEEGYSLETIKGLIKSSATALLEAFKISLKDEGFDEETIKELVEEAEKKLKEIEKELIEEAEKKYEE
B2: traf2_out_6_169_2491 (protein)
chain: SMAEELKKEAERHLKTAKELYEIAKTIYNQAINNKNYENIDDYIEALETIKNAYKHHYDKAIEYYKKLGNEEEAEKLEKEKEKKLKEIDEMIKKLKELKK
B3: traf2_out_14_17_1299 (protein)
chain: SILEKLEEIKKLAEELAKKYPELALETTRLVRKAESAIVLAEMYLEDPSYKPLAIEGLRNLKKLAEELAKKLKGKSAEGQKKAEEIKELAEKAIEELEKE
B4: traf2_out_16_177_1459 (protein)
chain: ELQKIMDRIVILSLIKRAAEYIVAGKEEEAKKYIEEARKEAEEAGDEEGLKLLEELEKLAKENTPEAKKKIKELARKAQKEAGELAEKAEELLEKRAKEE
B5: traf2_out_19_16_1982 (protein)
chain: HMEEAEKLIKEMKEYLEKALKLAKETVENLEKLSREELSDKLVEISELIRKAQEALEKAKKLLSDDKEKIKELEKEFDEKLDEINRLMTIIVNKYEELLK
B6: traf2_out_11_155_743 (protein)
chain: EERRKLNQEMNDKIMDLFDKAREEALKIAEEAAKKHPEHKEALDAKIESTKGFSYRSFILSLIELFKKLGLEEEAKKLEELLEKTQKEANKIVQETEKKL
B7: traf2_out_20_3_2181 (protein)
chain: EELEKELEKEKKEALKLIEQAAKLADKETAKRLKELAKRLEESETLSYEDQLVELSEIRRELLRLAEEARARGDEELAAVLEAAADALNRAMNLVQKIIE
B8: traf2_out_5_189_2327 (protein)
chain: SARAAEQAALRARARRLDREARELLAEAKAEGLSLEEIIERLLERAATLSLEDAQLYVGIAYAILKGEALANNDEELLKAAEEFRERAMAWIAARRAAAA
B9: traf2_out_16_177_1447 (protein)
chain: ELDRLMDRLVILSHLRRAAELAVEGRLDAAREELARARAEAEEAGDAEGLALADEIAALIAENTPEARARLAALAARLQAEAGKLAEEAEALIKARAAAE
B10: traf2_out_9_17_2613 (protein)
chain: SAEEKYLKEKLLEAIEEVLKELVEKGYITEEEAEEILEKVKEMIEKGASPDEIIASFLGDVASILLTKSNLSLPEANKIVGEAYRKLRERLEKIEKELAA
B11: traf2_out_11_169_820 (protein)
chain: AEKKFNRELNDFALEENDKANEELKKFALALAKEEGLDVAEVEKIFEETKGKSLSYIASKLIAWFRSKGAEKAAAAVEAKHDELQDEINKKVSAKIKELK
B12: traf2_out_17_162_1471 (protein)
chain: MSIEEVVEELKKELEELRKRAEELEEKLKELEKLSKEELTDLLVEASEARRRALELAERFKELAPEIGEEVAEEYAKEAEEIAERLQRIANKIYKEIEKK
B13: traf2_out_16_171_1444 (protein)
chain: SREERAREILERIRERVERLKERAATALEMAPLIMRETGLTPEQIAAGVASHFDDRLAELRRFIEEHRPELSPEELEEAEALLAEAEAHVEAQLAAIRAL
B14: traf2_out_13_95_1126 (protein)
chain: SKEVAEKIMEIADEMEEKVLEKLEELLEIAKKKGIAEEEIKEILELAKHGTISTVIHKLKELSKKYPELKEEFEETIKELEEIRREAGREVAKILKEEEE
B15: traf2_out_6_156_2409 (protein)
chain: MVEKILKEALEEIEKLIKELAKASEEKKIAYISKIAGTAYRALQKLREAGASLEEIEKFSKELLERIEKLLKEAGLPEETRNLVLSALQAVFDVAIEEAK
B16: traf2_out_17_178_1743 (protein)
chain: SKEEILKKISELADKMLDTSAAAAAELRAIAEREGVLTPELRARLDEVARNSNAYALDEVAAEVIARTPRAEEVAALRDATLAKLKALEKEIQKAVDELE
B17: traf2_out_11_169_822 (protein)
chain: EQKEFNRKLNDFALEKNDEANEKLKEEALKLAKEAGLDVEEVEKIFEENKGKSLSAIAAALIEWFKSKGKEEEAAKVLELHDKLKDEINKAVSEKIKELE
B18: traf2_out_6_156_2457 (protein)
chain: TLEKILEETKKKIKEGVKKLAEASEEKKIAYINKIAGAFYRGLQRAREAGASLEELEAFARELIKVAKEEAKKAGLDEDTKNLLLSTLNAVADVALREAA
B19: traf2_out_18_117_1781 (protein)
chain: SEREELIKELQEIAERLDEAASRLGKVFLDNYEKLTPEEKSEIMDILADLTAVRQKALQLIIKIENGEIEVEEAKKELEKLKKEAEEAIKKAEERIKKIE

Biological target: T1, TRAF2, Q12933
T1 chain: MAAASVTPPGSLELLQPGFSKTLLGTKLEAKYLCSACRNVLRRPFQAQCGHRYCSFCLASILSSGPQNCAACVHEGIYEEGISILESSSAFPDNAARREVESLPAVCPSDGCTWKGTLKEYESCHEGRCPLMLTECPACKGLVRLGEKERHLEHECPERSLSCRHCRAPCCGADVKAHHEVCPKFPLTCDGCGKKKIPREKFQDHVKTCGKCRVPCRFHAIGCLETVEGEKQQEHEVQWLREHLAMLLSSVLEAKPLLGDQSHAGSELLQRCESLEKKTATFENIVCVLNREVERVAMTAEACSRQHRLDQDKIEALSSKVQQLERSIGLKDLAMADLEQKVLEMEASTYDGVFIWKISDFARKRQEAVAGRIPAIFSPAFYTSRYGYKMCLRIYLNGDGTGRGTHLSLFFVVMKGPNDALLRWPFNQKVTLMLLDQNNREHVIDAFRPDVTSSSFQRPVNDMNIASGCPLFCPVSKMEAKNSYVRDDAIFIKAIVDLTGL
Assay: median log2 fold change of GCK-ALFA target abundance (FLAG IP / Myc IP barcode read proportion) (log2 ratio); each designed protein is fused to an ALFA-tag nanobody in HEK293 cells to bring the named protein to FLAG-tagged glucokinase (GCK); Myc marks an untargeted standard; higher = target protein stabilised (more abundant)
Conditions: target protein: 3xFLAG-MCP-GCK-ALFA reporter; HEK293 landing pad (RPLP)
In short: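 Sequencing of reverse-transcribed, amplified circular RNA barcodes from anti-FLAG and anti-Myc immunoprecipitates provided the readout for an ALFA-nanobody-fused binder library recombined into HEK293 landing-pad cells. Those cells were induced with 2 μg mL^−1 doxycycline, transfected with a plasmid expressing a FLAG-tagged target and a Myc-tagged standard, and lysed after 48 h. Target abundance is the per-binder median log2 ratio of FLAG to Myc barcode read proportions. Only barcodes at a proportion of ≥10^−7 in both replicates and binders with ≥3 barcodes per replicate were kept, with a 10^−6 pseudocount added before the two replicates were pooled.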

Row | Binder | median log2 fold change
1 | B1 | 0.175
2 | B2 | -0.373
3 | B3 | -0.0329
4 | B4 | 0.0013
5 | B5 | 0.129
6 | B6 | 0.182
7 | B7 | 0.145
8 | B8 | -0.128
9 | B9 | 0.0857
10 | B10 | 0.0985
11 | B11 | 0.295
12 | B12 | 0.35
13 | B13 | -0.131
14 | B14 | -0.141
15 | B15 | -0.0141
16 | B16 | 0.172
17 | B17 | 0.108
18 | B18 | -0.286
19 | B19 | 0.277
